# The supplement of paper PMC12632987
# Over roughly 1,800 sequences, “median log2 fold change of GCK-ALFA target abundance (FLAG IP / Myc IP barcode read proportion)” has its median near 0.14; the lowest 2% begin near -0.84. This is one part of the list.
# T1: TRAF2, Q12933
# T1 chain: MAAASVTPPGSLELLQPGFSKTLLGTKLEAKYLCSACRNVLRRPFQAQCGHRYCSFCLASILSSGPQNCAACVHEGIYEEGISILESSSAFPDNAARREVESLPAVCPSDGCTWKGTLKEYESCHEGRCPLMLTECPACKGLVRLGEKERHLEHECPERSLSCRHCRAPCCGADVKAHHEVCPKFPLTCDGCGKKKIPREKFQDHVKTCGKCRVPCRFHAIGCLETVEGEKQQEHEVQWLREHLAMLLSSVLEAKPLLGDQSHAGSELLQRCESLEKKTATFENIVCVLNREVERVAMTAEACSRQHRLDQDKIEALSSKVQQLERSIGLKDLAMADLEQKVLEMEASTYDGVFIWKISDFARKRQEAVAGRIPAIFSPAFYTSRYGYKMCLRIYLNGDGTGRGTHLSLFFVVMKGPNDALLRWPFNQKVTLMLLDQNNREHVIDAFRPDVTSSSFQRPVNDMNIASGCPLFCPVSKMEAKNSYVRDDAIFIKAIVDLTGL
# B1: traf2_out_17_162_1622 (protein)
# chain: MSIEEKLRRLEERLERLEEELKRLEELKKRIEELSKEELTDYLVEASEARREALEAIEELDKLKDKIPEEVYERLKERFEEIAERFQRIANIFYKKLEEK
# B2: traf2_out_6_169_2490 (protein)
# chain: SMAEELKKEAEKHLKTAKELLEIAKTIYNQAKNNKKYEKIDDYIEALETIKNSIKHHYDKAIAYYEKLGKKEEAAKLKEEKEKVLKEIEEMIKELKELKK
# B3: traf2_out_18_117_1803 (protein)
# chain: GELEKAQEEFKKALEEFEKVLTEAQKVAGKLIEKYPHNLPEEVTDAIVEMGELKREARLLEQLAKEHSEDLEKLKEITKRVKELTKKMKEILKKLKELLE
# B4: traf2_out_17_162_1600 (protein)
# chain: SELEKFKEKIEKELEELEKERKELEKKLKEIDSLSKEELTDLLVEASEKRRKALELLEKLEENKEKLDKEFYEKYKKRAEEIAEEFQRIANEIMKKLEEK
# B5: traf2_out_16_104_1423 (protein)
# chain: SEEKQKAFDKAIKELEEIAERAQRLANRAYELYLKASPEKKTELSDLLVELSELKREALLAAQEAKELQKNGGDLEEVQKKLEELRKRLEELEKRLKELE
# B6: traf2_out_6_156_2375 (protein)
# chain: MLEKILEEAKKKIEELIKELAKASEEKKIAYISRIAGAVYRALQRMREAGASVEEIKKAVEELKKVAEEKAKEAGLDQDTIDLLLASIDAVGKVALEEAK
# B7: traf2_out_15_180_1324 (protein)
# chain: MTEEELEKRIELANEVADKVDDKLKALLAANPGLSEEEKAALKALARSVTTLYMNGEYAEAEAALAALEARLSPKAAAVAKELAAFAKKLVEEAKEELAK
# B8: traf2_out_6_156_2391 (protein)
# chain: MLEAIEAETLEKLAELIEEMSKASEEKKIFYINRIAGVVYRALQRARDAGASLEELRAFAERVRAFLKEELDKYGIDEDTKNLILSSINAVFDEALAAAE
# B9: traf2_out_18_3_1942 (protein)
# chain: KEEKLKEISEKIDEIIDEVTARAEAELARLLAEHPEHAAEAERLRADLAAGAGPFGILEELAELWRAAGDEERAAAVEEFLRRKRRELQKLVDEYEKLLK
# B10: traf2_out_6_156_2434 (protein)
# chain: SIEEILKEAKEKIKELIKELAKAPESKKISYINKIAGTFYNALRKLKEAGASIEEIKKVNEELIKVAEEEAKKAGLDEDTINLLLASLNAVGIVAIESAE
# B11: traf2_out_17_178_1712 (protein)
# chain: SKEEARKEISAATDEMIDLAEAAATRLLEIARKEGSLSPEELAELERARRLGSARTTLALMERAIPKSKSAEEVQAILDEFRKRYAELSKKIAEALEKYE
# B12: traf2_out_17_60_1761 (protein)
# chain: GPEEEKEELAKRAEEKIKEARELVEEVREKLAAGTLTADEAMDYLVELSEKRRELEALREELKAKGPEFEPLVERLEETIEEIRRTMNEVGKKLLELLAA
# B13: traf2_out_20_3_2226 (protein)
# chain: EELEKELEKLLEEALKQLKEIAKVADPETKKVVEKMIKKLEEAKELDPVDRLVVLSEVRRQLLLLAQKAKAAGNKELAAKLEKAAELLQRAMQVEYKIIE
# B14: traf2_out_5_63_2355 (protein)
# chain: SEREELTALAKEADKLALELLEAAKKGDEEEVEKLLKEAAEDEELARTVLGILKGYAKYYELLGDKPEEAKIAKELAKRLEELMKEKKEEEARRKAEEEA
# B15: traf2_out_13_95_1168 (protein)
# chain: SEEKTEKERKIASEAFDRREAIARDFAARVRALIDDPEAAALMDEVVRRMNRFTLEAAAARLIAAHPEHAAEIRALRDEALARMREIDRETTKKLNEIEE
# B16: traf2_out_20_3_2184 (protein)
# chain: SELEKQLEEELEKALALLKEAAKLADKETAAKLDALAKRLKASRELSPEDQLVELSEIRREVLRLAEEAKKEGKEELAKVLEKAAEALNRAMNLVYKIIE
# B17: traf2_out_13_95_1135 (protein)
# chain: SKETAEKIMEVADEMLDKVTAVLEKLKAKAEKAGKLVEEIEEVLHLARYQSVNLAIHKLRELSKEHPEFKEELDAAIEEIEAIRREAGKKVAEILKKAKE
# B18: traf2_out_13_95_1132 (protein)
# chain: SAETAKKIMEIADKMLDEILAILEELLKKAEAAGVGVEEIQKAIHLAEHHSVNEAIHLLRELAKKHPEFKAELEAAIAKIEAIREKAGREVAKILKEAAE
# B19: traf2_out_6_166_2461 (protein)
# chain: SEELRKRIKEIIEELSKYPVDVILEAFEEVAKEVDPESARIARQLASAVRQAQKLGLDVAVALSATVDGLIALGVPEEKLLELLEKILKKAKEIAAEREA
# B20: traf2_out_9_17_2609 (protein)
# chain: SAAEERLRERLLEAIEEVLKELVEKGYITEEQAEEILKKVRELIERGASTDEIIAEFLGMVASILLTKSNLSLPEANKIVGEAYRKLRAALAAIEAELAA
# B21: traf2_out_11_169_873 (protein)
# chain: EEAEKNRKINDKALELNDKAKEELKEFALKLAKEKGLDVEEIKKIFEKNKNKSLSYVAAELIRYFKEKGEEEAAEEILKKYEELKEKINKEMSKFLKELE
# B22: traf2_out_17_178_1733 (protein)
# chain: SREEILKKISEYADEMLDVTKKAVDELKAIAEKEGILTPELKARLDEVASTSNLYAFKEVAEELIKLSSNKEEVEKLLKETVKKLTELRKKIQEAVDELE
# B23: traf2_out_17_178_1705 (protein)
# chain: SKEEARKKISEATDKMIDLAQEAAERLLEIAEREGSLSPEELAELRRARRLGSARTTLALMRRAIPRSRSAEEVRRLVEEFEKEYRELSKIIAEELKKYE
# B24: traf2_out_8_15_2551 (protein)
# chain: SIEEAALKDIAKLESLSDGDKESLINTLLGMAKGELRLAKIYAEEGRKEEALNTLKAAKIYADEALKLAKEINSPNLEEIKKEVEKIHKEIEELKKKIKA
# B25: traf2_out_20_3_2146 (protein)
# chain: EELEKKLEEEKERALKLLEEAAKLADKETAAKLKALAKRLKESEKLSYSDQLVVVSEVRREVLLLAQEAEAAGKEELAKLLEEAADELNRAMNLLYKIIE
# B26: traf2_out_20_38_2030 (protein)
# chain: SAEEEEERRLEELIEVANEAYDKYEEEFKKLQAEGKSVEEMAELTKEKVRELLEKAGLEEEAKILIEDIDRALSSPNAVRLLIRILARAEALVYQKKINK
# B27: traf2_out_11_155_759 (protein)
# chain: STLRAKANAINDAAMAIADEIDAFIDEVIAAVEKEDPAVAAEIRAALAAHRDASARSRALIVADVLKAAGLDDRAAAVEKKLEEAQKRLNEEVKKIEEAA
# B28: traf2_out_1_27_986 (protein)
# chain: SEAEFTALVKEASRKIAAASPEEAIEIARETLRTLHELGNPDIGVAAVTLVTSVKTREDAEALIEAIVETLRELGVPEEEIERVRRQMETAVRLLFEALA
# B29: traf2_out_6_169_2501 (protein)
# chain: AEREELERELARHRARAEELFNIAKTIYKQAEENDDKSKLPTRLEALETIRNALTRQYDLAIAAAEALGDEELAAELREERERRLKEIDEYIKKLKEKMK
# Biological target: T1, TRAF2, Q12933
# Experiment: median log2 fold change of GCK-ALFA target abundance (FLAG IP / Myc IP barcode read proportion) (log2 ratio); each designed protein is fused to an ALFA-tag nanobody in HEK293 cells to bring the named protein to FLAG-tagged glucokinase (GCK); Myc marks an untargeted standard; higher = target protein stabilised (more abundant)
# Settings: target protein: 3xFLAG-MCP-GCK-ALFA reporter; HEK293 landing pad (RPLP)
# How it was run: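 Binders fused to an ALFA nanobody were recombined as a library into HEK293 landing-pad cells, which were induced with 2 μg mL^−1 doxycycline and then transfected to express a FLAG-tagged target and a Myc-tagged standard. After 48 h, circular RNA barcodes recovered by anti-FLAG and anti-Myc immunoprecipitation of lysates were reverse transcribed, amplified and sequenced. Each binder's target abundance is the median log2 ratio of FLAG to Myc barcode read proportions, from barcodes present at ≥10^−7 in both replicates, binders carrying ≥3 barcodes per replicate, a 10^−6 pseudocount and pooled replicates.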
row,Binder,median log2 fold change
1,B1,0.425
2,B2,-0.683
3,B3,0.417
4,B4,0.0488
5,B5,0.167
6,B6,0.151
7,B7,0.187
8,B8,0.185
9,B9,-0.0278
10,B10,0.163
11,B11,0.217
12,B12,-0.0492
13,B13,0.133
14,B14,0.382
15,B15,0.228
16,B16,0.0556
17,B17,-0.36
18,B18,-0.315
19,B19,0.127
20,B20,0.0709
21,B21,-0.161
22,B22,0.195
23,B23,-0.521
24,B24,0.246
25,B25,0.34
26,B26,0.153
27,B27,0.225
28,B28,0.297
29,B29,0.00609
